Over roughly 81,000 sequences, “one-hybrid fitness for binding parS DNA” has its median near -0.17; the highest 2% begin near 0.51. This is one part of the list.
B1: Caulobacter ParB omega fusion; a variant is named by its letters at X, in order, B8GW30 (parent)
chain: MESVVVGEPGMSEGRRGLGRGLSALLGEVDAAPAQAPGEQLGGSREAPIEILQRNPDQPRRTFREEDLEDLSNSIREKGVLQPILVRPSPDTAGEYQIVAGERAWRAAQRAGLKTVPIMVRELDDLAVLEIGIIENVQRADLNVLEEALSYKVLMEKFERTQENIAQTIGKSXSHVANXMRLLXLPDEVQSYLVSGELTAXHARAIAAAADPVALAKQIIEGGLSVRETEALARKAPNLSAGKSKGGRPPRVKDTDTQALESDLSSVLGLDVSIDHRGSTGTLTITYATLEQLDDLCNRLTRGI

Variants of: B1
Test: one-hybrid fitness for binding parS DNA (scaled: cognate 1, non-cognate 0); higher = stronger binding
Conditions: with parS DNA site
How it was run: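 Fitness is the rescaled log change in variant-to-wild-type read ratio, measured by Illumina sequencing of plasmids before and after bacterial one-hybrid selection. The scale puts cognate at 1 and non-cognate at 0. Selection of Caulobacter ParB libraries, four specificity codons randomised, took place in E. coli USO with a HIS3 reporter, site 19 bp from the promoter, over 48 hours at 37°C on M9-minus-histidine with 0.1 mM IPTG and 5 mM 3-AT.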

Variant	one-hybrid fitness for binding parS DNA
RPVQ	≤ 0.2
ITMC	≤ 0.2
APWE	≤ 0.2
KCMT	≤ 0.2
EIIG	≤ 0.2
ETSA	≤ 0.2
SKYD	≤ 0.2
SFQG	≤ 0.2
IAPE	≤ 0.2
VFSN	≤ 0.2
FYNG	≤ 0.2
RTII	≤ 0.2
HALL	≤ 0.2
DSHC	≤ 0.2
GWGD	≤ 0.2
TVNP	≤ 0.2
IHNC	≤ 0.2
SHMI	≤ 0.2
ALLY	≤ 0.2
GFLW	≤ 0.2
RPVM	≤ 0.2
ATMF	≤ 0.2
GKSY	≤ 0.2
TASL	≤ 0.2

Variant	one-hybrid fitness for binding parS DNA
QMMY	≤ 0.2
TRQT	≤ 0.2
SSDS	≤ 0.2
CVGK	≤ 0.2
GSLD	≤ 0.2
AMWC	≤ 0.2
THEY	≤ 0.2
VSRW	≤ 0.2
ASTS	≤ 0.2
FMNG	≤ 0.2
PWTW	≤ 0.2
LGLR	≤ 0.2
WVNC	≤ 0.2
TWES	≤ 0.2
MKAC	≤ 0.2
LITQ	≤ 0.2
QDTK	≤ 0.2
TPFC	≤ 0.2
AIRY	≤ 0.2
FSDI	≤ 0.2
WFAS	≤ 0.2
NSRN	≤ 0.2
DALL	≤ 0.2
RTFS	1.03

Variant	one-hybrid fitness for binding parS DNA
CPPT	≤ 0.2
LFLC	≤ 0.2
PTKM	≤ 0.2
WKLD	0.243
CFPH	≤ 0.2
RYLM	0.324
DQCG	≤ 0.2
FLFI	≤ 0.2
THTL	≤ 0.2
YNRF	≤ 0.2
DSDT	≤ 0.2
YEHG	≤ 0.2
PCEW	≤ 0.2
RIVW	≤ 0.2
WVHV	≤ 0.2
SSPA	≤ 0.2
IMPE	≤ 0.2
LGHV	≤ 0.2
PDGL	≤ 0.2
RYQT	0.853
QITF	≤ 0.2
WYGR	0.204
RVND	≤ 0.2
ALKC	≤ 0.2

Variant	one-hybrid fitness for binding parS DNA
NYAV	≤ 0.2
SPPA	≤ 0.2
GSFC	≤ 0.2
RSTH	0.234
HMNS	≤ 0.2
ATYG	≤ 0.2
DLHM	≤ 0.2
FSTG	≤ 0.2
FRNV	≤ 0.2
SPRI	≤ 0.2
RMSK	≤ 0.2
INSS	≤ 0.2
CMRY	≤ 0.2
MMWN	≤ 0.2
VVND	≤ 0.2
QPGG	≤ 0.2
SPRT	≤ 0.2
CKLP	≤ 0.2
ATSN	≤ 0.2
HFGR	≤ 0.2
QGRH	≤ 0.2
RWNM	0.221
MNCS	≤ 0.2
TNAR	≤ 0.2

Variant	one-hybrid fitness for binding parS DNA
TRAF	≤ 0.2
KTPY	≤ 0.2
YGLL	≤ 0.2
VLLD	≤ 0.2
HFFR	≤ 0.2
TVCS	≤ 0.2
YVQM	≤ 0.2
HPTG	≤ 0.2
RSKE	≤ 0.2
TAYF	≤ 0.2
RTWG	1.03
GSRM	≤ 0.2
PLYW	≤ 0.2
DMVR	≤ 0.2
RTCF	0.252
RSHG	1
TAEG	≤ 0.2
VKQC	≤ 0.2
EMWS	≤ 0.2
VRDC	≤ 0.2
WPPP	≤ 0.2
NMMT	≤ 0.2
FWHR	≤ 0.2
NPCI	≤ 0.2

Variant	one-hybrid fitness for binding parS DNA
VRYS	≤ 0.2
RVLD	0.245
DLII	≤ 0.2
SVWD	≤ 0.2
LTPI	≤ 0.2
KTKQ	≤ 0.2
FCIG	≤ 0.2
HWSR	≤ 0.2
MPTG	≤ 0.2
DIRN	≤ 0.2
QNPK	≤ 0.2
LILK	≤ 0.2
NPIS	≤ 0.2
WIMG	≤ 0.2
LTFA	≤ 0.2
TSGY	≤ 0.2
FHKY	≤ 0.2
NITG	≤ 0.2
ELMG	≤ 0.2
ITWM	≤ 0.2
RRSA	0.693
CYRT	≤ 0.2
GTHH	≤ 0.2
GWSM	≤ 0.2

Variant	one-hybrid fitness for binding parS DNA
DTWE	≤ 0.2
CNCN	≤ 0.2
LPRY	≤ 0.2
KNLW	≤ 0.2
ICAS	≤ 0.2
ETDT	≤ 0.2
CPHS	≤ 0.2
ADSG	≤ 0.2
QYPF	≤ 0.2
GRRE	≤ 0.2
NAWL	≤ 0.2
FSMI	≤ 0.2
TQSR	≤ 0.2
KLGG	≤ 0.2
GFGL	≤ 0.2
VGSS	≤ 0.2
WSEL	≤ 0.2
LPKL	≤ 0.2
MDAW	≤ 0.2
SYHE	≤ 0.2
TLNY	≤ 0.2
PRSI	≤ 0.2
REVQ	≤ 0.2
LLHI	≤ 0.2

Variant	one-hybrid fitness for binding parS DNA
WDDR	≤ 0.2
CHHE	≤ 0.2
KKPM	≤ 0.2
RHKW	0.205
DDVR	≤ 0.2
DDRS	≤ 0.2
YAAI	≤ 0.2
EIAP	≤ 0.2
CSHM	≤ 0.2
LTQK	≤ 0.2
RWEM	≤ 0.2
PATE	≤ 0.2
ARHL	≤ 0.2
NNPW	≤ 0.2
NPGG	≤ 0.2
RMNH	0.287
CVAA	≤ 0.2
WYCT	≤ 0.2
VDWR	≤ 0.2
RQFE	≤ 0.2
NAKS	≤ 0.2
LITD	≤ 0.2
FISS	≤ 0.2
VCHS	≤ 0.2

Variant	one-hybrid fitness for binding parS DNA
GPHE	≤ 0.2
QTIG	≤ 0.2
THTR	≤ 0.2
WHRG	≤ 0.2
SVND	≤ 0.2
QHKN	≤ 0.2
VFKR	≤ 0.2
RWMH	≤ 0.2
FGHM	≤ 0.2
CHYG	≤ 0.2
CLDK	≤ 0.2
ELPG	≤ 0.2
CHRS	≤ 0.2
SLRI	≤ 0.2
GTWV	≤ 0.2
QTAG	≤ 0.2
FKYC	≤ 0.2
WRPG	≤ 0.2
TRTS	≤ 0.2
HPNF	≤ 0.2
NLNS	≤ 0.2
YTSG	≤ 0.2
KPEY	≤ 0.2
RKWT	0.759

Variant	one-hybrid fitness for binding parS DNA
HRNW	≤ 0.2
TNIS	≤ 0.2
PNLI	≤ 0.2
GRNC	≤ 0.2
IMIS	≤ 0.2
WQAS	≤ 0.2
PKIN	≤ 0.2
TAKR	≤ 0.2
CYMG	≤ 0.2
AYLM	≤ 0.2
ARSD	≤ 0.2
RVIR	≤ 0.2
TGAE	≤ 0.2
GRQN	≤ 0.2
IHPF	≤ 0.2
IKQF	≤ 0.2
HDTR	≤ 0.2
QIVA	≤ 0.2
RSAP	≤ 0.2
AWLE	≤ 0.2
HLLC	≤ 0.2
PNTW	≤ 0.2
PYPA	≤ 0.2
RHYR	≤ 0.2

Variant	one-hybrid fitness for binding parS DNA
IRSK	≤ 0.2
DKTH	≤ 0.2
SGPA	≤ 0.2
PSMT	≤ 0.2
AISS	≤ 0.2
KTLT	≤ 0.2
WIAA	≤ 0.2
KTHM	≤ 0.2
LQCT	≤ 0.2
ELYL	≤ 0.2
IQHT	≤ 0.2
MQGR	≤ 0.2
ANAY	≤ 0.2
SKRR	≤ 0.2
HGLR	≤ 0.2
QSLC	≤ 0.2
MGKR	≤ 0.2
YNQW	≤ 0.2
WVPR	≤ 0.2
AKNG	≤ 0.2
NPIM	≤ 0.2
VPDW	≤ 0.2
KSPL	≤ 0.2
NVLL	≤ 0.2

Variant	one-hybrid fitness for binding parS DNA
PSLY	≤ 0.2
RAVN	0.388
GNDR	≤ 0.2
GCSP	≤ 0.2
FSKL	≤ 0.2
GKHG	≤ 0.2
LIMG	≤ 0.2
LTPR	≤ 0.2
VMVV	≤ 0.2
NTPR	≤ 0.2
EMPC	≤ 0.2
GTWS	≤ 0.2
CPVI	≤ 0.2
PFDV	≤ 0.2
RSRN	0.416
SAKY	≤ 0.2
PNAC	≤ 0.2
RVMY	0.455
HDPT	≤ 0.2
VDRL	≤ 0.2
VGVK	≤ 0.2
LHIV	≤ 0.2
LQLA	≤ 0.2
TIQF	≤ 0.2

Variant	one-hybrid fitness for binding parS DNA
TDTC	≤ 0.2
SAAV	≤ 0.2
RNCI	≤ 0.2
LEQE	≤ 0.2
CVAT	≤ 0.2
RPGT	≤ 0.2
PPGC	≤ 0.2
KRPK	≤ 0.2
SRLY	≤ 0.2
MVES	≤ 0.2
HLYS	≤ 0.2
GQFR	≤ 0.2
HRTP	≤ 0.2
HDWC	≤ 0.2
LFKS	≤ 0.2
TADN	≤ 0.2
TFAW	≤ 0.2
VHCK	≤ 0.2
